# Results: PubChem BioAssay AID662 (National Center for Advancing Translational Sciences (NCATS), 2007)
# Out of some 71,000 compounds screened, about 1,800 (2.5%) were called active. The shares of active, inactive and inconclusive entries below differ from those in the screen. Calls come from the whole dose curve; as a rule, active = well fitted activation curve with a large enough effect in the signal ratio, with a control signal flat (not every such curve was filed as active); inconclusive = small, poorly fitted or top-dose-only effect, or effect the other way, or a change in a side signal; inactive = flat fitted curve, though single readings scatter; the % refers to the signal ratio. Potencies beside an inconclusive call are fits to weak or partial responses and may not hold up.
# Test: Cell signaling CRE-BLA (Fsk stim); for activity change, negative = inhibition: % of control where 0% means no effect
# Details: CHO CRE-bla reporter (cAMP response element driving beta-lactamase), forskolin EC10, beta-lactamase ratio; activity change, negative = inhibition: at 38.2 µM (top of the series) unless noted
# Method in brief: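 Using CellSensor CRE-bla CHO cells in Opti-MEM with 0.5% dialyzed FBS, compounds were titrated with EC10 NKH 477 for 3 h at 37 °C. CCF4 ratio (460/530 nm) gave %Activity; AC50 derived.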
# Potency is the fitted concentration of half-maximal effect; tags give direction and shape of the fitted curve.
SMILES,"activity change, negative = inhibition",Potency
CCOC(=O)C1CCCN(C(=O)c2ccc3c(c2)NC(=O)C(N2CCOCC2)S3)C1 (centres undefined),inconclusive: 16.3%,
COCCn1c(N)c(C(=O)NCc2cccs2)c2nc3ccccc3nc21,,"inconclusive: 12.6 µM [rising, partial curve]"
COc1ccc2c(c1)c1nnc(SC)nc1n2C,,active: 2.51 µM
CCOC(=O)C(NC(=O)N1CCCCC1)(c1ccccc1)C(F)(F)F (centres undefined),inconclusive: 22.9%,
CC(C)OCCCNS(=O)(=O)c1ccc2c(c1)oc(=O)n2C,inactive: -2.32%,
CCCCOc1cc(C)nc(NCc2ccccc2)n1,,"inconclusive: 10 µM [rising, single point]"
CC(=Nc1ccc2c(c1)nc(CO)n2C)C1=C(O)CC(C)(C)CC1=O,,"inconclusive: 5.01 µM [falling, single point]"
CCOc1cc(C(=O)N2CCCC2)cc(OCC)c1OCC,inconclusive: 4.93%,
CCCCN=c1sc(C(=O)OC)cc(=O)n1CCCC,,"inconclusive: 1 µM [rising, full curve, poor fit]"
Cc1cc(C)nc(SCc2nc3ccccc3n2C)n1,,"inconclusive: 10 µM [rising, partial curve]"
C=CCN1C(=O)/C(=C2/Sc3ccccc3N2CCCS(=O)(=O)O)SC1=S,inactive: 23.8%,
COc1ccc(N(C(C)=O)C2C=CS(=O)(=O)C2)c(OC)c1 (centres undefined),inactive: -2.71%,
COc1ccc(CCNc2oc(-c3ccccc3OC)nc2C#N)cc1,,"inconclusive: 12.6 µM [rising, single point]"
Cc1cc(C)nc(-n2nc(C)cc2NC(=O)COC(=O)CCC(=O)c2cccs2)n1,,"inconclusive: 10 µM [rising, partial curve]"
COCCn1c(=O)c(-c2ccc(OC)cc2)nc2cnc(Oc3ccccc3)nc21,,"inconclusive: 10 µM [rising, partial curve]"
CC1Cc2ccccc2N1C(=O)CSc1nnc2sc3ccccc3n12 (centres undefined),,"inconclusive: 25.1 µM [rising, single point]"
O=C(NCCCN1CCCC1=O)c1nnc(Cc2c(F)cccc2Cl)o1,inconclusive: -15.1%,
Cc1ccc(N2CCN(CCC(=O)O)CC2)cc1,,"inconclusive: 5.01 µM [rising, single point]"
COCCN(C(=O)Cn1nnc2ccccc21)C(C(=O)NC1CCCC1)c1cc(OC)ccc1OC (centres undefined),inactive: -3.33%,
O=C1C(=O)N(CCCN2CCOCC2)C(c2cccs2)/C1=C(/O)c1ccc2c(c1)OCO2 (centres undefined),,"inconclusive: 0.0316 µM [rising, full curve, poor fit]"
Cc1cc(NC(=O)CSc2ccccc2)no1,,"inconclusive: 0.00398 µM [falling, full curve, poor fit]"
O=c1cc(-c2ccccc2)oc2cc(O[C@H]3O[C@H](CO)[C@@H](O)[C@H](O)[C@@H]3O)c(O)c(O)c12,inactive: -0.0287%,
CCCc1[nH]nc2c1C(c1ccc(OC)c(Cn3nnc4ccccc43)c1)C(C#N)=C(N)O2 (centres undefined),inconclusive: 15.3%,
Cc1cc(-c2ccccc2)c(C#N)c(N)n1,,active: 12.6 µM
O=c1c(-c2ccc(F)cc2)nc2cncnc2n1Cc1ccc(F)cc1,,"inconclusive: 12.6 µM [rising, single point]"
CCc1nnc(NC(=O)C2CCN(c3nccc(C)n3)CC2)s1,inconclusive: 23.5%,
Cc1cc(-c2ccccc2)nn1-c1nc2c(c(=O)[nH]c(=O)n2C)n1C,,"inconclusive: 12.6 µM [rising, single point]"

SMILES,"activity change, negative = inhibition",Potency
CCN1CCN(C(=O)c2cn(CCOC)c(=O)c3c2c2ccccc2n3C)CC1,inconclusive: 15.1%,
COc1ccc(C2(CNC(=O)CCC(=O)O)CCCC2)cc1,inconclusive: 12.5%,
COc1ccc(-c2nc3nc(C)c(Cc4ccccc4)c(=O)n3[nH]2)cc1,,"inconclusive: 10 µM [rising, partial curve]"
Cc1ccccc1NS(=O)(=O)c1cc(C(=O)NCc2ccco2)ccc1C,,"inconclusive: 20 µM [falling, single point]"
COc1ccc(-c2nc3cnc(OC)nc3n(Cc3cccs3)c2=O)cc1,,"inconclusive: 3.98 µM [rising, full curve]"
O=C(Cn1c(C(=O)N2CCN(C3CCCC3)CC2)cc2sccc21)c1ccccc1,inactive: -12.7%,
O=c1cccc(-c2ccc(Br)cc2)o1,,"inconclusive: 0.0501 µM [rising, full curve, poor fit]"
Cc1onc(-c2ccccc2)c1C(=O)Nc1ccncc1,,"inconclusive: 25.1 µM [rising, single point]"
O=C(c1cnccn1)N1CCC[C@@]2(CCN(c3ccncc3)C2)C1,inactive: -7.17%,
Cc1cc2nnc(SC(C)C#N)n2c2ccccc12 (centres undefined),,"inconclusive: 25.1 µM [rising, single point]"
COC(=O)[C@@H](NC(=O)NCc1cccc(OC)c1)C(C)C,inconclusive: -8.61%,
O=[N+]([O-])c1ccc(Cl)c(CNc2ncnc3c2ncn3[C@@H]2CCCCO2)c1,inactive: -8.5% [at 7.6 µM],
CCNc1ncc2nc(CCc3ccccc3)c(=O)n(-c3ccc(OC)cc3)c2n1,,"inconclusive: 12.6 µM [rising, partial curve]"
COC(=O)CN(c1ccc(OC)cc1)S(=O)(=O)c1c(C)noc1C,inconclusive: 10%,
CCN(CC)S(=O)(=O)c1cccc(-c2nc3n(n2)Cc2ccccc2-3)c1,,"inconclusive: 6.31 µM [rising, single point]"
Cc1ccccc1CNc1ncnc2c1ncn2[C@@H]1O[C@@H](CO)[C@H](O)[C@@H]1O,inactive: -8.32%,
CCOC(=O)C1=C(N)OC2=C(C(=O)CC(C)(C)C2)C1c1ccoc1 (centres undefined),inactive: 4%,
O=C(Nc1ccc(N2CCN(C(=O)c3ccccc3)CC2)cc1)c1ccc(Br)o1,inactive: -7.02%,
COc1ccc(-c2nc3cnc(N4CCN(C)CC4)nc3n(C)c2=O)cc1,,"inconclusive: 2.51 µM [rising, full curve]"
COc1ccc2nc(SCC(N)=O)[nH]c2c1,inconclusive: -11.5%,
Cc1ccc2nc(NCCO)nc(-c3ccccc3)c2c1,,"inconclusive: 10 µM [rising, partial curve]"
c1cncc(CNc2cc(-c3ccoc3)ncn2)c1,inactive: -2.02%,
COC1(OC)N=C(NC(=O)Nc2ccccc2)C2(C#N)C(c3ccccc3)C12C#N (centres undefined),inactive: -4%,
CC1CN(C(=O)c2cccs2)CCN1C(=O)c1cccs1 (centres undefined),inactive: 20.8%,
Cc1ccccc1-n1c(=O)cc(N2CCN(C(=O)c3ccco3)CC2)[nH]c1=O,inconclusive: -24%,
COCCn1c(=O)[nH]c2cc(C(=O)NCCc3ccc(OC)c(OC)c3)ccc2c1=O,inactive: -3.72%,
O=C(COc1ncnc2sccc12)Nc1ccc2c(c1)OCCO2,,"inconclusive: 3.98 µM [falling, single point]"

SMILES,"activity change, negative = inhibition",Potency
Cc1ccc2nc(SCCC#N)nc(C)c2c1,,"inconclusive: 10 µM [rising, single point]"
CCOC(=O)c1ccc2c(c1)N(Cc1ccccc1C)C(=O)c1ccccc1S2=O (centres undefined),inconclusive: 11.2%,
COc1ccc(S(=O)(=O)N2CCCC2C(=O)Nc2nnc(-c3cccnc3)s2)cc1 (centres undefined),,"inconclusive: 5.01 µM [falling, single point]"
Cc1ccc2nsnc2c1S(=O)(=O)N1CCCC1,inactive: 2.31%,
CCCN(CCC)c1nc2ccccc2nc1C(C#N)C(=O)OCCOC (centres undefined),,active: 12.6 µM
CCCCC/C=C/C=C/C=O,inactive: -1.75%,
Cc1ccccc1-c1nc(CS(=O)(=O)CC(=O)N2CCc3ccccc3C2)c(C)o1,inconclusive: -24.2%,
CC1(C)Oc2ccc(C(=O)NC3CCCC3)cc2N(CC(=O)NC2CCCCC2)C1=O,inactive: -7.76%,
Cn1c(=O)n(CCc2ccccc2)c(=O)c2c1nc1n2CCCN1CCc1ccccc1,,"inconclusive: 3.16 µM [rising, partial curve]"
C=CCOc1ccc(/C(O)=C2\C(=O)C(=O)N(CCCOC)C2c2ccncc2)cc1 (centres undefined),inconclusive: -3.8%,
CCOC(=O)c1sc(/N=C/N(C)C)c(C(=O)OCC)c1C,inconclusive: 19.1%,
Cc1ccc(S(=O)(=O)N2CCOCC2)cc1C(=O)Nc1ccc(-c2cn3ccsc3n2)cc1,inconclusive: 17.3%,
CS(=O)(=O)Nc1cccc(-c2ccc3ncnc(NC4CCNCC4)c3c2)c1,inconclusive: 2.56%,
O=C(CSc1nc2c(cnn2-c2ccc(F)cc2)c(=O)[nH]1)N1CCOCC1,inconclusive: 2.5%,
N=c1sc2ccccc2n1CCS (tested in a mixture with another compound),inactive: -4.66% [at 7.6 µM],
CCN1CCN(c2c(Cl)cccc2NC(=O)c2ccco2)CC1,inactive: 12%,
FC(F)(F)c1ccccc1-c1cc(NCc2cccnc2)ncn1,inactive: 3.71%,
COc1cc(Nc2cc(C)nc3ncnn23)cc(OC)c1OC,,"inconclusive: 10 µM [rising, single point]"
COCCn1c(=O)c(-c2ccc(Cl)cc2)nc2cnc(OC)nc21,,"inconclusive: 10 µM [rising, partial curve]"
CC(Cc1ccccc1)N/C=C1/CC(=O)NC1=O (centres undefined),inconclusive: -20% [at 7.6 µM],
O=C(O)c1cc(C(=O)O)c(-c2ccccc2)c(C(=O)O)c1,inconclusive: -2.65% [at 7.6 µM],
CN1CCN2c3ncccc3Cc3ccccc3C2C1 (centres undefined),inconclusive: -21%,
CCOc1ccc2[nH]c(=O)c(CN(Cc3ccco3)C(=O)c3cccc(F)c3)cc2c1,inactive: 4.52%,
CCOC(=O)N1CCN(Cc2nc3c(c(=O)n(C)c(=O)n3C)n2Cc2ccccc2C)CC1,inconclusive: 21.1%,
CCn1cc(C(=O)NCCC2=CCCCC2)c(=O)c2cc(S(=O)(=O)N(C)C)ccc21,inconclusive: 7.67%,
